Measured values taken from paper PMC13083723 (Patterns, 2026).
The campaign covered roughly 5,400 compounds. About 190 (3.5%) showed an effect of 50% or more. Some of the results follow.

tested on: Vero-E6; assay: primary screen, phospholipidosis by LipidTOX staining; higher = more effect of the substance; conditions: 10 µM
Outline: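 Drug-induced phospholipidosis detected with HCS LipidTOX Red reagent in Vero-E6 cells. Compounds tested at 10 μM, with amiodarone (10 μM) as positive control and DMSO (0.1 v/v %) as vehicle.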

Row | Compound | result_ITMP [%]
1 | CC1(CN)Cc2ccccc2C1 | 4.65
2 | COc1ccc(-c2cc(=O)c3c(O)cc(O)cc3o2)cc1O | -2.3
3 | CC(C)(C)NCC(O)c1cc(Cl)c(N)c(Cl)c1 (stereo not shown) | -1.67
4 | Nc1nc(Cl)nc2c1ncn2[C@@H]1O[C@H](CO)[C@@H](O)[C@@H]1F | -8.91
5 | O=C([O-])C(O)Cc1ccc(O)c(O)c1 (stereo not shown) | 1.45
6 | CC(C)C(=O)OCC(=O)[C@@]12O[C@H](C3CCCCC3)O[C@@H]1C[C@H]1[C@@H]3CCC4=CC(=O)C=C[C@]4(C)[C@H]3[C@@H](O)C[C@@]12C | -8.83
7 | CCCCCCCCCCCCCCOc1ccc(C(=O)O)o1 | 0.17
8 | OC(c1ccccc1)C1CCN(CCc2ccccc2)CC1 (stereo not shown) | -0.41
9 | Cc1c[nH]c2ncnc(N3CCC(CN)(C(=O)Nc4cccc(OC(=O)N(C)C)c4)CC3)c12 | -0.8
10 | CC(C)(C)Sc1c(CC(C)(C)C(=O)O)n(Cc2ccc(Cl)cc2)c2ccc(OCc3ccc4ccccc4n3)cc12 | -0.86
11 | CN1CCN(c2ccc3nc(-c4ccc5nc(-c6ccc(O)cc6)[nH]c5c4)[nH]c3c2)CC1 | -0.53
12 | CC(=O)N[C@@H](CC(C)C)C(=O)O | -3.92
13 | Nc1nc(=O)c2nc(CNc3ccc(C(=O)N[C@@H](CCC(=O)O)C(=O)O)cc3)cnc2[nH]1 | -2.25
14 | CCn1c(=O)n([C@H]2CCCN(c3nccc(-c4cc5ccccc5o4)n3)C2)c2ccccc21 | -1.15
15 | NC[C@@H]1CC[C@@H](N)[C@@H](O[C@H]2[C@H](O)[C@@H](O[C@H]3O[C@H](CO)[C@@H](O)[C@H](N)[C@H]3O)[C@H](N)C[C@@H]2N)O1 | -7.73
16 | O=C1CCC2CCC(=O)N12 | -3.3
17 | CCC(c1ccccc1)c1c(O)c2ccccc2oc1=O (stereo not shown) | -4.73
18 | CC(C)CC(=O)Nc1n[nH]c2c1CN(C(=O)C1CCN(C)CC1)C2(C)C | 2.05
19 | O=C(NCCS(=O)(=O)c1ccc(C(F)(F)F)cn1)c1ccc(Cl)cc1 | -0.85
20 | CCCc1ccc(C(=O)O)cc1 | -9.29
21 | Nc1nc(F)nc2c1ncn2[C@@H]1O[C@H](CO)[C@@H](O)[C@@H]1O | -3.23
22 | Cc1c(OCC(F)(F)F)ccnc1CS(=O)c1nc2ccccc2[nH]1 (stereo not shown) | -1.32
23 | CO/N=C(\C(=O)N[C@@H]1C(=O)N2C(C(=O)OCOC(=O)C(C)(C)C)=C(C)CS[C@H]12)c1csc(N)n1 | -0.22
24 | CCc1cccc(N(C)C(=N)Nc2cccc3ccccc23)c1 | 34.8
25 | CC(=O)c1cnc2ccc(-c3cc(Cl)c(O)c(Cl)c3)nc2c1N[C@H]1CC[C@H](CN(C)C)CC1 | -0.83
